Assay results published in paper PMC9574860, “Chemical Toolkit for PARK7: Potent, Selective, and High-Throughput” (Journal of Medicinal Chemistry, 2022).
The campaign covered roughly 7,900 compounds. About 400 (5.1%) showed an effect of 50% or more. The list shows a part of the results.

Target: Parkinson's disease protein 7 (PARK7/DJ1) (human, UniProt Q99497)
Test: primary screen, percent inhibition; read as competition with a fluorescent probe by fluorescence polarization; higher = more effect of the substance
Settings: 100 µM
In short: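 Fluorescence-polarization probe displacement (JYQ-107, 20 nM final, 2 h) after 2 h preincubation of PARK7 (0.2 μM final) with each fragment at 100 μM final. Read-out ex/em 480/520 nm; remaining activity derived from FP signal loss relative to reference controls.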

Parkinson's disease protein 7 (PARK7/DJ1), sequence (Q99497 whole entry, looked up): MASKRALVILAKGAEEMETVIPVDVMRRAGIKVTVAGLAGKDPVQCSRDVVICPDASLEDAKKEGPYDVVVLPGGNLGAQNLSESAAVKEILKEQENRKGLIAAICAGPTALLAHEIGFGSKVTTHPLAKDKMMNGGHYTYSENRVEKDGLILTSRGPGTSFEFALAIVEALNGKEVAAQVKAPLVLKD

Compound	Inhibition % [%]
C=CC(=O)N1CCS(=O)(=O)C2CCCC21 (stereo not drawn)	9.67
CC(C)(C)c1ccccc1NC(=O)Cn1cnc(C#N)n1	7.34
O=C1c2ccccc2C(=O)N1CC1CO1 (stereo not drawn)	3.59
C=CC(=O)Nc1cccc(-c2ccc3c(c2)OCCO3)n1	10.5
O=C1CC2(CCNCC2)N1	3.72
CC(=O)NC1CCCN(C(=O)CCl)C1 (stereo not drawn)	17.8
Clc1ccc(OCC2CO2)cc1Cl (stereo not drawn)	7.16
C=CC(=O)N1CCC(OC2CCOC2)CC1 (stereo not drawn)	3.79
C=CC(=O)N1CCCC(Oc2ccc(Cl)cn2)C1 (stereo not drawn)	6.49
Cc1cc(C)n2nc(SCC3CCC(=O)O3)nc2n1 (stereo not drawn)	8.44
Cc1cnc(C#N)s1	4.36
Cn1cc(S(=O)(=O)F)c(N)n1	7.95
C=CC(=O)NC(C)(C)c1cnn(C)c1	3.17
Cc1cc2ncn(C(=O)N3CCCC3)c2cc1C	11.5
N#CC(=Cc1ccncc1)C(=O)NCc1ccco1	14.7
O=C1NC(c2cccnc2)C12CCC2 (stereo not drawn)	3.72
COCC(C)NC(=O)C(C#N)=Cc1ccc(F)c(C)c1 (stereo not drawn)	5.47
COC1C=CS(=O)(=O)C1 (stereo not drawn)	4.95
O=c1c2cccnc2nc(S)n1C1CC1	7.8
CCn1nc(C)c(C(=O)Nc2cccc(S(=O)(=O)F)c2)c1Cl	8.14
CNC(=O)c1cccc(CN2C(=O)CSC2=O)c1	10.4
N#Cc1ncn(CC(=O)Nc2cccc(F)c2)n1	7.22
CC1(C2CC2)CCN(c2cncc(C#N)n2)CC1	6.7
NC(=S)c1cccnc1S	7.34
O=c1[nH]c(S)nnc1-c1ccccc1	6.07
FC(F)(F)c1cnc(S)c(Cl)c1	5.52

Compound	Inhibition % [%]
C=CC(=O)NCc1cc2n(n1)CCC2	10.7
C=CC(=O)N1CCC(C)(c2cccc(F)c2)C1 (stereo not drawn)	4.56
C=CC(=O)N1CC(C)OC2(CCOC(C)C2)C1 (stereo not drawn)	9.19
Cn1cccc1C(=O)CCl	8.03
C=CCNC(=O)C(C#N)=Cc1cccc(O)c1	4.34
CCN1CCN(c2oc(-c3ccco3)nc2C#N)CC1	9.73
C=CC(=O)NC1CCCC1(F)F (stereo not drawn)	8.23
C=CC(=O)N1CCCCC(S(C)(=O)=O)C1 (stereo not drawn)	8.81
C=CC(=O)N1C[C@]2(C)COC[C@]2(C)C1	9.62
CC(c1ccccc1)N1CCN(C(=O)CCl)CC1.Cl (stereo not drawn)	4.62
O=C1OCCC1Sc1ncnc2ccccc12 (stereo not drawn)	54.5
COc1ccc(C=C(C#N)c2nc(C)cs2)cc1O	33.2
CC1CC(C(=O)NCc2cc(=O)[nH]c(S)n2)CC(C)(C)C1 (stereo not drawn)	6.89
Cc1nccc(NS(=O)(=O)c2ccc(S(=O)(=O)F)cc2)n1	57.9
O=C(CCl)N=c1sccn1Cc1cccc2ccccc12	3.64
C=CC(=O)NC1CCCS(=O)(=O)c2ccccc21 (stereo not drawn)	10.9
Cc1ccc(C=CC(=O)N2CCC(NS(C)(=O)=O)CC2)o1	10.6
N#CCc1ccc(NS(=O)(=O)C=Cc2ccccc2)cc1	7.7
NC(=O)CCc1ccc(C(=O)CCl)cc1	82.5
O=C(CCl)Nc1ncc(C(F)(F)F)cc1Cl	15.4
O=C(NCC12CC3CC(CC(C3)C1)C2)c1cccnc1S	8.16
Cc1nc(NS(=O)(=O)c2ccc(S(=O)(=O)F)cc2)no1	22.7
O=C(CCl)NC1CCCC1	15.6
Cc1cc(NC(=O)CCCl)no1	1.08
N#CC(=Cc1ccsc1)C(=O)Nc1nccs1	8.96
C=CC(=O)NC1CCCOC1 (stereo not drawn)	0.851

Compound	Inhibition % [%]
CCc1noc(CC)c1CNCc1ccc(B(O)O)cc1	4.39
Cc1cc(C)n(S(=O)(=O)c2ccccc2)n1	11.5
Cc1cc(C=C(C#N)C(=O)N2CCC2)c(C)n1C1CC1	5.63
N#CC(=Cc1csc(-c2ccc(F)cc2)n1)C(N)=O	12.4
C=CC(=O)N[C@@H]1c2sccc2OC(C)(C)[C@H]1O (racemic)	9.43
O=C1CC(CC(=O)N2CCSc3ccccc32)CO1 (stereo not drawn)	2.01
O=C(CCl)Nc1ccc(Cl)c(C(F)(F)F)c1	26.2
OB(O)C1=CCN(Cc2ccnn2-c2ccncc2)CC1	61.3
C=CC(=O)N1CC(C)(OCC)C1	8.54
C=CC(=O)N1CC=C(COC)CC1	11.3
Cc1noc(C(C)NS(=O)(=O)C=Cc2ccccc2)n1 (stereo not drawn)	8
C=CC(=O)N1CC(=O)Nc2ccccc21	10
O=C1CCC(=O)N1CC1CO1 (stereo not drawn)	11
Fc1cccc(C2CO2)c1 (stereo not drawn)	28.4
CCOC1CC(Cl)C1 (stereo not drawn)	5.87
CNC(=O)C(C#N)=Cc1ccc(OC)cc1OC(C)C	7.72
Cc1ccc(CN(C)C2CC(C)OC2=O)cc1 (stereo not drawn)	6.84
COc1ccc2[nH]c(C)c(C(=O)CCl)c2c1	4.84
C=CC(=O)NCC1(N(C)C)CCOCC1	14.4
Cc1cc(C)cc(NC(=O)CCl)c1	11.3
CC(c1ccccc1)N(C)C(=O)Cn1cnc(C#N)n1 (stereo not drawn)	7.46
O=C1OCCC1NC1c2ccccc2-c2ccccc21 (stereo not drawn)	3.41
N#Cc1ccc(NC2CCCC2O)cn1 (stereo not drawn)	3.91
Cc1nn(-c2ccc(Cl)cc2)c(C)c1C=C(C#N)C(=O)O	-1.13
CC1NC(=O)CCC1NC(=O)c1ccnc(C#N)c1 (stereo not drawn)	10
N#Cc1ncsc1Cl	2.87

Compound	Inhibition % [%]
C=CS(=O)(=O)Oc1ccccc1	12.6
OB(O)c1ccc2nncn2c1	3.76
O=S(=O)(F)c1ccc(S(=O)(=O)F)cc1	7.58
C=CC(=O)NCC1(C)CC1(C)C (stereo not drawn)	-4.35
CCOC(=O)N1CCN(C(=O)CCl)CC1	67.8
O=C(CCl)Nc1ccccc1Oc1ccccc1	6.38
C#CC(=O)N(C)c1ccc(O)cc1	-2.3
Cl.O=C(CCl)NC1CCN(C2CC2)CC1	6.09
O=C(CCl)NC(=O)c1ccc(OC(F)F)cc1	28.9
CCOc1ccc(S(=O)(=O)n2nc(C)cc2C)cc1	3.86
C=CC(=O)NC1CCCN(c2ccccc2)C1 (stereo not drawn)	5.28
O=C(CCl)NCCOc1cccc(F)c1	14.5
CN(C)C(=O)c1ccc(CNC(=O)CCl)cc1	2.36
Cc1nc(C(C)NC(=O)c2cccnc2S)no1 (stereo not drawn)	8.34
C=CC(=O)N1CCCCC1C(=O)O (stereo not drawn)	3.57
CCOc1ccc(O)c(C=O)c1	13.8
COc1ccc(C2CCCN2C(=O)n2ccnc2)cc1 (stereo not drawn)	6.77
CN(C)C(=O)Oc1ccc(Cl)c2cccnc12	4.87
CN(CC(=O)Nc1ccc(F)cc1)C(=O)CCl	94.2
O=c1onc(-c2cnccn2)n1Cc1cccc(F)c1	-2.87
CC(C)(C)c1cc(NC(=O)CCl)n(-c2ccccc2)n1	29.9
O=S1(=O)C=CC(Nc2ccccc2)C1 (stereo not drawn)	4.24
C=CC(=O)N(C)Cc1c(C)noc1C	0.947
Cc1ccc(F)cc1Oc1cnc(C#N)cn1	6.34
C=CCNC(=O)C(C#N)=Cc1ccc(OC)c(O)c1	5.17
CN(C)CCCn1c(S)nc2ccccc2c1=O	5.79

Compound	Inhibition % [%]
C=CC(=O)N1Cc2cnn(-c3ccncc3)c2CC(C)(C)C1	3.45
N#CC1C(=O)NC(=O)C(C(=O)S)C12CCCCC2 (stereo not drawn)	14.8
CC1(C)OB(c2cccc(OC(F)(F)F)c2)OC1(C)C	0.275
COc1ccc(C2=NC(=Cc3csc(C)n3)C(=O)O2)cc1	14.1
CCN(C(=O)CCl)c1cccc2ccccc12	21.4
CC1(C)CC(OS(C)(=O)=O)CCO1 (stereo not drawn)	8.17
C=CC(=O)N1CCSCCC1C (stereo not drawn)	7.94
Cc1ccc(NC(=O)Cn2cnc(C#N)n2)cc1Cl	-3.39
CC(C)(C)OC(=O)N[C@@H]1CC[C@H](CS(=O)(=O)F)C1 (racemic)	87.2
C=CC(=O)N1CCC(c2ncno2)CC1	9.72
C=CC(=O)NCc1ccn(C2CCCC2)n1	2.26
Cc1cc(C#N)nc(NC2CCCCCC2)n1	2.75
O=C(CCl)NC(=O)c1ccc(Cl)cc1	19.6
O=C(NCc1ccccc1)N1CCCCC1C1OCCO1 (stereo not drawn)	6.92
CC1CCCN1Cc1cccc(B2OC(C)(C)C(C)(C)O2)c1 (stereo not drawn)	0.686
C=CC(=O)Nc1ccc(N2CCNC(=O)C2)nc1	30.4
Cc1nc(C#N)cs1	2.19
COCc1cccc(CNC(=O)c2cccnc2S)c1	9.15
CC1(C)OB(c2scc3c2OCCO3)OC1(C)C	9.49
CN1C2CCC1CC(CCl)C2.Cl (stereo not drawn)	5.78
C=CC(=O)N1CC(n2cccn2)C1	9.97
Cl.NC1C=CS(=O)(=O)C1 (stereo not drawn)	9.63
